Reference: patent US20260201030A1, “ANTIBODY, ANTIBODY-DRUG CONJUGATE THEREOF AND USE THEREOF” (EVOPOINT BIOSCIENCES CO., LTD., priority 2021, published 2026)

B1: conjugated 25C7A5-HZ1 (conjugate)
heavy: QVQLVQSGAEVKKPGSSVKVSCKASGYTFTNYWLHWVRQAPGQGLEWMGMMHPISGSSNYAQKFQGRATLTVDKSTSTAYMELSSLRSEDTAVYYCARGLLSAMDYWGQGTLVTVSS[human IgG1 constant region omitted here]
light: EIVLTQSPATLSLSPGERATLSCKASENVKTYVSWYQQKPGQSPRLLIYEASNRYTGVPARFSGSGSATDFTLTISSLEPEDFAVYFCGQTYSFPPTFGQGTKVEIKRTVAAPSVFIFPPSDEQLKSGTASVVCLLNNFYPREAKVQWKVDNALQSGNSQESVTEQDSKDSTYSLSSTLTLSKADYEKHKVYACEVTHQGLSSPVTKSFNRGEC
B2: conjugated 25C7A5-HZ2 (conjugate)
heavy: B1 heavy with Q6E
light: B1 light
B3: 25C7A5-hz1-B81: ADC of 25C7A5-HZ1 with toxin linker, DAR 7.97 (conjugate)
heavy: B1 heavy
light: B1 light

Key:
[1] = test system: HEK293T-claudin 18.2 (human) cells; test: In-vitro killing activity of ADCs on HEK293T-claudin 18.2 (human) cells; type: cell-based; conditions: 72 h, CCK8
[2] = test system: HEK293T-claudin 18.1 (human) cells; test: In-vitro killing activity of ADCs on HEK293T-claudin 18.1 (human) cells; type: cell-based; conditions: 72 h, CCK8
NUGC4-Claudin18.2 cells = test: In-vitro killing activity of ADCs on NUGC4-Claudin18.2 cells; type: cell-based, human; conditions: 72 h, CCK8
[3] = test system: human gastric cancer cells NUGC-4; test: In-vivo efficacy of ADCs in NUGC-4 CDX model; parameters: species or system Balb/c Nude mice; conditions: 10 mg/kg i.v. QW*3 wks

| Molecule | killing of HEK293T-claudin18.2 cells [1] | killing of HEK293T-claudin18.1 cells [2] | killing of NUGC-4-Claudin18.2 cells (NUGC4-Claudin18.2 cells) | tumor inhibitory efficacy in the NUGC-4 CDX model ([3]; FIG. 10) | tolerability, effect on the body weight of mice ([3]; FIG. 11) |
| --- | --- | --- | --- | --- | --- |
| B1 | effective in killing | substantially did not kill | effective in killing |  |  |
| B2 | effective in killing | substantially did not kill | effective in killing |  |  |
| B3 |  |  |  | significant efficacy | well tolerated by the mice overall, with no adverse reactions |

Where a chain is given by its changes, count along the chain named.
